Results as given in article PMC10541173.
No constants are given. Whether binding was seen depends on the method and setting. For part of these data: In cells and extracts the contact can be indirect. Some entries that bind do so weakly or less than the wild type. For part of these data: Tags and fused reporters may be left off the sequences shown. Each block holds one binder with its values, some of them ahead of it.

Chains of the proteins cited; added tags and fusions are not shown. Lines headed by an entry give the natural chain unless they say otherwise; changes in a name come on top. A line that says so, or that is headed by a name, gives the form on record, which may keep a tag or linker. Residues count along the entry.
UniProt Q969W3: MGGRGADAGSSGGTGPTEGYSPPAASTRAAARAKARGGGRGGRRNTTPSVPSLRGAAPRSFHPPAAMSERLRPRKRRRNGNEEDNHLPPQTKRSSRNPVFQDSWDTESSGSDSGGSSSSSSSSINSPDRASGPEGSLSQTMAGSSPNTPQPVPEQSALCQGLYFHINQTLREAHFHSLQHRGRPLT
FLAG-VCF1 isoform 2 Cdel26: residues 1-160 of Q969W3
GST-VCF1 isoform 1 (Q969W3, form named): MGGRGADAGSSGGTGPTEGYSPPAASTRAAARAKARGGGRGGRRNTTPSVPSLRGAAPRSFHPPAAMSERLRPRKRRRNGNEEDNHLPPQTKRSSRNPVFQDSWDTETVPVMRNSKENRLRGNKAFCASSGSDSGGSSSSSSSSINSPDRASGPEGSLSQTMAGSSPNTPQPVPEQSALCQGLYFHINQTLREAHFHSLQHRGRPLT
FLAG-VCF1 isoform 1 Cdel26 (Q969W3, form named): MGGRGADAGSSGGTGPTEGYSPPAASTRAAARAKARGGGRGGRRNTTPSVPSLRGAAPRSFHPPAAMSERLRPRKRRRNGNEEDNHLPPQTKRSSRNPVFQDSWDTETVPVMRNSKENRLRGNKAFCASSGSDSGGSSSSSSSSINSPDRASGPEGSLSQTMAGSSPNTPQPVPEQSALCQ

What was measured:
[1] = molecular target: p97 (two-hybrid bait, BD-p97) (human) (UniProt P55072); experiment: two-hybrid; directed assay in yeast PJ69-4a; bait BD-p97 (pGBDU), prey AD-VCF1/2 (pGAD); growth on medium lacking uracil, leucine and histidine, 37°C, 3 d
[2] = molecular target: p97, endogenous (human (endogenous in HEK293T)) (UniProt P55072); experiment: co-IP; immunoprecipitation of endogenous p97 (control: unspecific rabbit IgG) from lysates of HEK293T cells ectopically expressing FLAG-VCF1/2 or control cells; Protein G sepharose, 4°C; immunoblot
[3] = molecular target: GST-VCF1 isoform 1 (human) (UniProt Q969W3); experiment: pull-down; 0.76 nmole GST fusion immobilised on 10 µl glutathione sepharose beads; 0.2 nmole (monomer) p97 or 0.5 nmole His6-FAF1 (or other purified p97 cofactors) in TBS, 2 mM DTT, 1% Triton X-100; SDS-PAGE with Coomassie or 2,2,2-trichloroethanol staining, FAF1 immunoblot; both purified
[4] = molecular target: GST-VCF1 isoform 2 (human) (UniProt Q969W3); experiment: as above
[5] = molecular target: T1, FLAG-VCF2 isoform 3 (human) (UniProt Q5XKR9); experiment: co-IP; anti-FLAG (M2 agarose) immunoprecipitation from lysates of HEK293T cells ectopically expressing FLAG-VCF1/2; lysis buffer 50 mM Tris-HCl pH 7.6, 150 mM NaCl, 2 mM MgCl2, 1% NP40, 10% glycerol, 1 mM DTT; overnight at 4°C; immunoblot of endogenous p97 and cofactors
T1 sequence: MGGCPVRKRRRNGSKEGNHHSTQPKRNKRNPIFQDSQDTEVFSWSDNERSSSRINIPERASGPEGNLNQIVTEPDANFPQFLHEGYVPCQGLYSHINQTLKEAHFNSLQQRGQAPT

[6] = molecular target: FLAG-VCF1 isoform 2 Cdel26 (human) (UniProt Q969W3); experiment: as above
[7] = molecular target: FLAG-VCF1 isoform 1 Cdel26 (human) (UniProt Q969W3); experiment: as above

B3: His6-p47 (protein, UniProt Q9UNZ2 1-370)
chain: MAAERQEALREFVAVTGAEEDRARFFLESAGWDLQIALASFYEDGGDEDIVTISQATPSSVSRGTAPSDNRVTSFRDLIHDQDEDEEEEEGQRFYAGGSERSGQQIVGPPRKKSPNELVDDLFKGAKEHGAVAVERVTKSPGETSKPRPFAGGGYRLGAAPEEESAYVAGEKRQHSSQDVHVVLKLWKSGFSLDNGELRSYQDPSNAQFLESIRRGEVPAELRRLAHGGQVNLDMEDHRDEDFVKPKGAFKAFTGEGQKLGSTAPQVLSTSSPAQQAENEAKASSSILIDESEPTTNIQIRLADGGRLVQKFNHSHRISDIRLFIVDARPAMAATSFILMTTFPNKELADESQTLKEANLLNAVIVQRLT
binding [3]: no binding | binding [4]: no binding

B5: His6-UBXN7 (protein, UniProt O94888 1-489)
chain: MAAHGGSAASSALKGLIQQFTTITGASESVGKHMLEACNNNLEMAVTMFLDGGGIAEEPSTSSASVSTVRPHTEEEVRAPIPQKQEILVEPEPLFGAPKRRRPARSIFDGFRDFQTETIRQEQELRNGGAIDKKLTTLADLFRPPIDLMHKGSFETAKECGQMQNKWLMINIQNVQDFACQCLNRDVWSNEAVKNIIREHFIFWQVYHDSEEGQRYIQFYKLGDFPYVSILDPRTGQKLVEWHQLDVSSFLDQVTGFLGEHGQLDGLSSSPPKKCARSESLIDASEDSQLEAAIRASLQETHFDSTQTKQDSRSDEESESELFSGSEEFISVCGSDEEEEVENLAKSRKSPHKDLGHRKEENRRPLTEPPVRTDPGTATNHQGLPAVDSEILEMPPEKADGVVEGIDVNGPKAQLMLRYPDGKREQITLPEQAKLLALVKHVQSKGYPNERFELLTNFPRRKLSHLDYDITLQEAGLCPQETVFVQERN
binding [3]: no binding | binding [4]: no binding

B6: UBXN2B, endogenous (protein, UniProt Q14CS0 1-331)
chain: MAEGGGPEPGEQERRSSGPRPPSARDLQLALAELYEDEVKCKSSKSNRPKATVFKSPRTPPQRFYSSEHEYSGLNIVRPSTGKIVNELFKEAREHGAVPLNEATRASGDDKSKSFTGGGYRLGSSFCKRSEYIYGENQLQDVQILLKLWSNGFSLDDGELRPYNEPTNAQFLESVKRGEIPLELQRLVHGGQVNLDMEDHQDQEYIKPRLRFKAFSGEGQKLGSLTPEIVSTPSSPEEEDKSILNAVVLIDDSVPTTKIQIRLADGSRLIQRFNSTHRILDVRNFIVQSRPEFAALDFILVTSFPNKELTDESLTLLEADILNTVLLQQLK
binding [6]: no binding | binding [7]: no binding

Now from value to binder:

binding [1]: binds
B1: VCF2 isoform 3 (two-hybrid prey, AD fusion) (protein, UniProt Q5XKR9-3 1-116)
chain: T1 sequence

binding [2]: binds
B2: p47, endogenous (protein, UniProt Q9UNZ2 1-370)
chain: B3 chain

binding [5]: binds
B4: UBXN7, endogenous (protein, UniProt O94888 1-489)
chain: B5 chain
